{"source": "the supplement of paper PMC11417369", "note": "± gives the standard deviation of the averaged measurements. This is one part of the list."}
{"test_system": "PfAP2-G AP2 domain (GST-tagged)", "test": "gcPBM binding intensity (ln(normalized median fluorescence intensity)); higher = stronger DNA binding", "how_it_was_run": "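In this array assay, P. falciparum DNA-binding domains with a GST tag, expressed in E. coli, were applied for 1 h to primer-extended double-stranded 36-bp intergenic genomic probes and negative controls on an Agilent 4 × 180k array. Bound protein was visualised with Alexa488 anti-GST antibody at 488 nm. Binding intensity is the highest Masliner-normalised natural-log median intensity across replicate spots of either probe orientation.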"}
{"sequence": "ATAACTTTATTTTCCTGTACACACATTTGACATATT [XGTACX_site7192]", "gcPBM binding intensity (ln)": "11.4 ± 0.73"}
{"sequence": "ATATATAATATAAGATGTACAATAAAATCTATATAT [XGTACX_site546]", "gcPBM binding intensity (ln)": "11.1 ± 0.63"}
{"sequence": "TACAAATATATAAAATGTACATATATATACATATTA [XGTACX_site3029]", "gcPBM binding intensity (ln)": "10.9 ± 0.55"}
{"sequence": "TTTATTTTCATATGAACACACATATAAATATTATAA [CACACA_site7172]", "gcPBM binding intensity (ln)": "10.1 ± 0.2"}
{"sequence": "ATATTTTATATGTTCACACATACATAAACATATTTT [CACACA_site4948]", "gcPBM binding intensity (ln)": 10.1}
{"sequence": "GAATAAAAATTTTAATGTACATATTTTTTATTTATA [XGTACX_site8935]", "gcPBM binding intensity (ln)": "11.2 ± 0.65"}
{"sequence": "GGTAGTTATTATCTCCGTACTTATAAAGAAAAAAGG [XGTACX_site4674]", "gcPBM binding intensity (ln)": "10.9 ± 0.63"}
{"sequence": "ATATGCTAATAAAATTGTACATATTATTCATATTGT [XGTACX_site2344]", "gcPBM binding intensity (ln)": "10.9 ± 0.49"}
{"sequence": "ATTTTTCCTCTCTTTTGTACTTATATATATATATAT [XGTACX_site7405]", "gcPBM binding intensity (ln)": "11.3 ± 0.99"}
{"sequence": "ATAAATACTTTTTGGTGTACACTTTTAAATGAAAAA [XGTACX_site3042]", "gcPBM binding intensity (ln)": "11.8 ± 1"}
{"sequence": "CAATTAAAGAAAAACAGTACGTGTATCAAACATCCT [XGTACX_site8990]", "gcPBM binding intensity (ln)": "11 ± 0.37"}
{"sequence": "ATATATTTTTAGCACAGTACAATATAATTAAATATA [XGTACX_site6779]", "gcPBM binding intensity (ln)": "10.6 ± 0.4"}
{"sequence": "TGACTACATAAAATGACACACACAAACTTTAAAATT [CACACA_site9151]", "gcPBM binding intensity (ln)": "9.98 ± 0.099"}
{"sequence": "TAAATGGATTGTTCAGGTACACATAAATATGATATT [XGTACX_site6963]", "gcPBM binding intensity (ln)": "11.2 ± 0.78"}
{"sequence": "AAAAGTTGTTTATAATGTACAAGGTAGAAAAAAACA [XGTACX_site1454]", "gcPBM binding intensity (ln)": "10.9 ± 0.29"}
{"sequence": "AACAAAATAAAAATAACACACACATTTATATATATA [CACACA_site8313]", "gcPBM binding intensity (ln)": "9.78 ± 0.2"}
{"sequence": "ATTATATTATTTTAAAGTACACACATATATTAATAT [XGTACX_site4769]", "gcPBM binding intensity (ln)": "11.6 ± 0.91"}
{"sequence": "ATATTATATAATAATGCATGCACCTTATTTTCATTT [TGCATGCA_site405]", "gcPBM binding intensity (ln)": "9.94 ± 0.042"}
{"sequence": "TTTTTTATTTTGTGCACACACATAAAAATATAAATA [CACACA_site6497]", "gcPBM binding intensity (ln)": "10.6 ± 0.49"}
{"sequence": "TACTCTTTCCAGAAGTGTACATAGAAATAATTACAT [XGTACX_site2668]", "gcPBM binding intensity (ln)": "11.2 ± 0.71"}
{"sequence": "AATGTATTAAAATTACGTACATATGCACATTTTATA [XGTACX_site5046]", "gcPBM binding intensity (ln)": "11.3 ± 0.83"}
{"sequence": "CAAGCACAGAAACACACACACACACCGACACAGACA [CACACA_site4359]", "gcPBM binding intensity (ln)": "10.3 ± 0.35"}
{"sequence": "AAAAAAAAAAAAAAAAGTACTAAATGTAAAAGAATA [XGTACX_site2164]", "gcPBM binding intensity (ln)": "11.2 ± 0.49"}
{"sequence": "TAAAAATAATATATTTGTACATATGTGTATACATAA [XGTACX_site741]", "gcPBM binding intensity (ln)": "10.7 ± 0.38"}
{"sequence": "TATAAATACATACATACACACATATATATATATATT [CACACA_site6116]", "gcPBM binding intensity (ln)": "10.2 ± 0.17"}
{"sequence": "TCCTAAAAAAAAAAAAAAAATGAAAAAGGAAAAAAA [CACACA_negctrl_site1646]", "gcPBM binding intensity (ln)": "9.61 ± 0.028"}
{"sequence": "AGCATTTCTTTTACATGTACATAATATTTTTAATAA [XGTACX_site1968]", "gcPBM binding intensity (ln)": "11.3 ± 0.74"}
{"sequence": "TAGTATTATTATTATGCACACAAAAATATTTATACA [CACACA_site9219]", "gcPBM binding intensity (ln)": "10.2 ± 0.23"}
{"sequence": "TTTTTTTTTTTTTTTTGTACATAATTATATATTTAC [XGTACX_site7540]", "gcPBM binding intensity (ln)": "10.9 ± 1"}
{"sequence": "AAGAAAAAACAAACATGTACACATAATTTAGTTTTT [XGTACX_site3121]", "gcPBM binding intensity (ln)": "11.4 ± 0.89"}
{"sequence": "AAAAAAAAAAAAAAAAAAATAAAAAATAAATAAATA [CACACA_negctrl_site1498]", "gcPBM binding intensity (ln)": "10.3 ± 0.54"}
{"sequence": "TATATATGTATGTATGCATGCCCTTTTTTAAAAAAA [TGCATGCA_site434]", "gcPBM binding intensity (ln)": "10.3 ± 0.24"}
{"sequence": "AAGAAAAATATATATATAAATAAATAAATATATATA [TGCATGCA_negctrl_site330]", "gcPBM binding intensity (ln)": "9.365 ± 0.049"}
{"sequence": "TACAAATACATTACATGTACATATTTAATAATATCA [XGTACX_site2075]", "gcPBM binding intensity (ln)": "11.2 ± 0.84"}
{"sequence": "TTTTCAATTAATAATACACACATGTATATATTATTA [CACACA_site3311]", "gcPBM binding intensity (ln)": "9.98 ± 0.2"}
{"sequence": "TATATTATTATGCATAGTACGTACTGTGATAAGAAT [XGTACX_site2956]", "gcPBM binding intensity (ln)": "11.4 ± 0.8"}
{"sequence": "CATTTTAAAACAGACACACACCAAAAAAAAAAAAAA [CACACA_site6259]", "gcPBM binding intensity (ln)": "10.1 ± 0.52"}
{"sequence": "TTTTTCTGTCGTTGTTGTACTTGAGGAGTAACAATT [XGTACX_site7852]", "gcPBM binding intensity (ln)": "11.3 ± 0.81"}
{"sequence": "TTTGAAAAGTATGAGGTGCAAAAAATGTAATGAAAT", "gcPBM binding intensity (ln)": "10.4 ± 0.23"}
{"sequence": "TTTTTTTTTTTTTTGGTGCGATCTTTTAAATGATCC", "gcPBM binding intensity (ln)": "10 ± 0.57"}
{"sequence": "TTTTATAATTTAAAATAATGAAACTTCTTTCTATTT [TGCATGCA_negctrl_site324]", "gcPBM binding intensity (ln)": "9.5 ± 0.24"}
{"sequence": "GTATATAAGTATATATGTACATATATTTTATATATA [XGTACX_site4745]", "gcPBM binding intensity (ln)": "11.1 ± 0.49"}
{"sequence": "AATACGAAGGATAAGAGTACTAATTAAATAAATGAA [XGTACX_site523]", "gcPBM binding intensity (ln)": "11 ± 0.46"}
{"sequence": "ATATAAGAATAAATAGTGCAAAATAAATGATTATTT", "gcPBM binding intensity (ln)": "9.76 ± 0.22"}
{"sequence": "TTTCTGATATTTTTATATTTTCTTATATATATATAT [GTGCAC_negctrl_site652]", "gcPBM binding intensity (ln)": "9.99 ± 0.26"}
